# Experimental data reported in the supplement of paper PMC4466236.
# The full ranking holds about 33,000 sequences; the median of “E-score (dimensionless, -0.5 to 0.5)” is about -0.058, and the highest 2% start at about 0.35. The list shows a part of the results.
# Tested on: MvaT
# Assay: PBM 8-mer E-score (mean of HK and ME arrays) (E-score (dimensionless, -0.5 to 0.5)); higher = stronger relative binding preference; most listed sequences are background and not binding sites
# In short: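 Full-length P. aeruginosa MvaT, with glutathione S-transferase fused to its N-terminus (cloned into pTH6838 by isothermal assembly), was tested by protein binding microarray using a previously described protocol. Two universal double-stranded 60-mer arrays (ME and HK) were used, each with a constant 25-mer primer region and a variable 35-mer region covering all 8-mers. The rank-based 8-mer E-score (-0.5 to 0.5) is the mean of the two arrays, parsed with a custom Python script.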
row,Sequence,PBM 8-mer E-score
1,AAGGGTAG,-0.155
2,CATCCAAG,-0.116
3,ACGAGCCC,-0.179
4,GCAGAATA,0.15
5,CAACTCAC,0.0639
6,ATACGGGC,-0.176
7,CAGTCTGG,-0.0418
8,ATTCTATG,-0.0228
9,AGGATATG,0.0859
10,ATACCGAA,0.185
11,TGAACAAA,0.0923
12,ACTGGCAA,0.00578
13,ACCGTAAA,0.0757
14,AAATGTGG,0.184
15,GCGCAAAA,0.239
16,AAACGTAT,0.222
17,GGACCCCC,-0.314
18,GAGCGCGC,-0.117
19,AAGTTCAT,0.293
20,CACGTTGC,-0.2
21,AGGGAGTA,-0.0415
22,AGGCGGCC,-0.337
23,AGGTCGAC,-0.0553
24,ACTTGCAC,0.203
25,AGACCACC,-0.205

row,Sequence,PBM 8-mer E-score
1,TATACGAA,0.165
2,GGCCAACC,-0.159
3,AATTCCAC,0.0822
4,ACACTCCT,0.0228
5,AATGATAA,0.242
6,ATCGACGC,-0.177
7,GCGATACC,-0.0525
8,CCTTAGCA,-0.228
9,AGAACTGA,0.0644
10,TCTGGCCA,-0.097
11,ATGGGGCG,-0.0818
12,GGATTAAA,0.232
13,GCGGTTGA,-0.165
14,ATTTAGTA,0.257
15,GGCCAGAC,-0.26
16,AGACCTTC,-0.219
17,GCCCATCA,-0.205
18,CAGAGATG,-0.178
19,CATCTTCA,0.0123
20,CCTGACTC,-0.279
21,CCCAAGAC,-0.249
22,CTCTCGCA,-0.219
23,AACTGAAA,0.1
24,GCGATCCC,-0.265
25,GCGCCCGC,-0.317

row,Sequence,PBM 8-mer E-score
1,TCAATTGA,0.212
2,CCAGCGCG,-0.252
3,CATCGGTC,-0.2
4,GCAAGAAC,-0.0598
5,CTTGTCGC,-0.147
6,TATCGAAA,0.144
7,TACGCATA,-0.0832
8,AACTAAAG,0.202
9,AGGGAACA,-0.0361
10,ACTGAGAT,0.0213
11,ATCAAGGG,-0.179
12,AAATATGG,0.278
13,CTTGGGCC,-0.354
14,CGAGCACC,-0.211
15,ACGACGAT,0.0121
16,CAGGATTA,0.0198
17,GTATCAAC,0.167
18,AAGTCAAA,0.117
19,AAGCACGG,-0.16
20,TGAGGACA,0.00325
21,GCTCGCAC,-0.22
22,CCTACAGC,-0.247
23,CGGCCGGA,-0.172
24,TCTAACCA,0.0514
25,CCGCTTAG,-0.0855

row,Sequence,PBM 8-mer E-score
1,CCCACAGG,-0.29
2,AAACATTA,0.303
3,AACGGCAC,-0.0645
4,CTCCGAAG,-0.162
5,CAGAAATA,0.274
6,CTACAGAA,0.00706
7,ATCATCGC,0.0285
8,CCTTTGTC,-0.203
9,GAGCTCGA,-0.127
10,ATGCCCTC,-0.354
11,TAGGCACA,-0.107
12,GTGATTTA,0.176
13,TCCGGGAA,-0.103
14,CAGAGATC,-0.143
15,CCCTTGTA,0.0407
16,GCATGCCC,-0.221
17,GGGTTGAC,-0.213
18,AAAAGGAG,-0.107
19,AGACGACG,-0.12
20,ATCCAGTA,0.0478
21,AATTTTTG,0.194
22,AATCGTGG,-0.0233
23,CCCTCACG,-0.188
24,ACTGCTTA,0.178
25,CACCATTA,0.167

row,Sequence,PBM 8-mer E-score
1,ACCACAGA,0.00601
2,AAATCGTC,-0.0137
3,AGAGCCAG,-0.199
4,CATCTCGG,-0.18
5,ATATGACG,0.195
6,CTAAAGAA,0.243
7,ACCGCGGG,-0.157
8,AACGCTTC,-0.149
9,AACCACCA,-0.0466
10,CTCTAGAC,-0.178
11,ACATACTA,0.278
12,ATGAAAAG,0.22
13,AGCCGCAT,-0.171
14,ACGTCCCT,-0.167
15,ACGATAAA,0.193
16,ATATCTGC,0.222
17,ACTGCCCG,-0.178
18,CTCAAACA,0.0497
19,TAGGCCCA,-0.168
20,AAAGTAGG,0.0451
21,AGAGGCTG,-0.304
22,GTTGACTA,0.129
23,ACATGTAA,0.361
24,GCCTTGGA,-0.206
25,AACTCTCT,0.0164

row,Sequence,PBM 8-mer E-score
1,TAAATTAA,0.437
2,ACGACAAC,0.0764
3,ATGTGAAC,0.113
4,AGCGCTTA,-0.159
5,ATCTAGCA,0.152
6,GGCGCTTA,0.0328
7,ATTGCACC,0.0315
8,CCTTGATA,0.0131
9,GGGGAACC,-0.283
10,TGGTCACA,-0.147
11,CTGACCAA,-0.0913
12,AGCAACCT,-0.211
13,GCACCCCC,-0.202
14,ACCGTGAT,-0.129
15,ACCTGACG,-0.127
16,ACCGGGTG,-0.226
17,ACCACGTC,-0.269
18,CTCTCGTA,-0.0316
19,AGCAGTAC,0.0828
20,GCAATTCC,0.00763
21,ACCACATC,-0.0359
22,ATGTTGAG,0.126
23,AACTTTGG,0.286
24,AACAGGTG,-0.141
25,CCAAATCG,-0.0865

row,Sequence,PBM 8-mer E-score
1,ACAATACC,0.143
2,GGGGTACA,-0.0667
3,CCTCAGAC,-0.153
4,GCAATGGA,-0.0761
5,ACTACCGG,-0.0644
6,CTGGGGCC,-0.185
7,AAACAAGT,0.127
8,AAGTGGCA,-0.105
9,GATGCCCC,-0.271
10,AGCCCCGC,-0.235
11,CGCTAATA,0.235
12,GTTAAACA,0.282
13,CTGCCTCA,-0.248
14,GATTAGCA,-0.0207
15,TCGCAACA,0.102
16,ATTGACCA,-0.0249
17,CAGAGGTA,-0.2
18,GGATCCAC,-0.209
19,GATGCCGC,-0.185
20,GGGCTCAA,-0.301
21,AATTCGCA,0.167
22,CGAGCTCG,-0.124
23,GGCGTAGA,-0.167
24,CTAACACC,0.0346
25,CGCGTAGC,-0.129

row,Sequence,PBM 8-mer E-score
1,CCCTACGG,-0.245
2,GATCACGA,-0.0215
3,CTAGAATA,0.229
4,ATACTCGC,0.143
5,GACACTAC,-0.194
6,CCTTCAGC,-0.267
7,CCGCGGAG,-0.273
8,CAGACATA,0.126
9,ATACATCA,0.192
10,ACTAGCGA,-0.0912
11,AAACGGCA,0.0119
12,GTCTTCAA,0.117
13,CCATTTGA,0.000356
14,CGTGCTAA,0.0161
15,AATCTTGT,0.0955
16,GTCGCAGA,-0.201
17,ACCCTCCC,-0.077
18,GATCGACA,-0.231
19,ACGTCAAC,-0.0213
20,TACTCCAA,0.097
21,AACGAAGG,-0.134
22,TCTTCGCA,-0.0246
23,CTTCAGTC,-0.175
24,GATCAGGC,-0.219
25,ATTGAGTG,0.14

row,Sequence,PBM 8-mer E-score
1,AGTCTAGA,-0.0983
2,TCCAAGGA,-0.0392
3,GAGCACTA,-0.0139
4,ATCGCAAA,0.0978
5,GCGCTGGA,-0.137
6,TATTGCCA,0.178
7,CGAAGTCA,-0.0654
8,ATTCGCTC,-0.0854
9,AAGATGGA,-0.103
10,GCTGCCCA,-0.142
11,AGCGTTGG,-0.19
12,GCTAATCA,0.0157
13,ACAGCTCC,-0.144
14,GATGTTCC,-0.0754
15,ATTCGTAC,0.113
16,AAGAGATA,0.264
17,TACAATCA,0.213
18,AAATGTAG,0.0975
19,CCGTATGC,-0.153
